This assay concerns the target T1, androgen receptor (AR), full-length, human (human, UniProt P10275 1-920).
T1 construct: also called wtAR; full length AR
T1 sequence: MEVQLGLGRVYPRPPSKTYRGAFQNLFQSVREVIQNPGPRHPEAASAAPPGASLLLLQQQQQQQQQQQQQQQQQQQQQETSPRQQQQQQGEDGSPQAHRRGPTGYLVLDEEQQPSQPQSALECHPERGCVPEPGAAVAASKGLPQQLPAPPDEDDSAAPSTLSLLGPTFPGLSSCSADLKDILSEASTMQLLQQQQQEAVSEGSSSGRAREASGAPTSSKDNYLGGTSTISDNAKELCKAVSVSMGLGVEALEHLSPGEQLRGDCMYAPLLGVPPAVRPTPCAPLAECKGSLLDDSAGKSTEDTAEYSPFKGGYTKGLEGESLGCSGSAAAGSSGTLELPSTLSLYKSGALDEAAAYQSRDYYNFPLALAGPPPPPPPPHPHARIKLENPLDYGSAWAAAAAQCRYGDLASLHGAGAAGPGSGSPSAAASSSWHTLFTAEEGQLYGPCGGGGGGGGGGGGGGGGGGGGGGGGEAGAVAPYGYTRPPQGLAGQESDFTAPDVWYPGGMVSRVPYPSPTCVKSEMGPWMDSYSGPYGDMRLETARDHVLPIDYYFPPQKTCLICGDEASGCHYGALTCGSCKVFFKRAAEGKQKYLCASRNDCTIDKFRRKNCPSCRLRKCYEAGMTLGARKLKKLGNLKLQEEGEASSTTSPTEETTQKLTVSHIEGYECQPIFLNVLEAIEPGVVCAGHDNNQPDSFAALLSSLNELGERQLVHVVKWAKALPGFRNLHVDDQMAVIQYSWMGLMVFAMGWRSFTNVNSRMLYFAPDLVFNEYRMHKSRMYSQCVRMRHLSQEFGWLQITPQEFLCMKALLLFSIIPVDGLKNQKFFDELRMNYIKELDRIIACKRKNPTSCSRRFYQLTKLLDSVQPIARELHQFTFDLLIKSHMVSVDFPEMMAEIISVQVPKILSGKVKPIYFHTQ
As to the kind of experiment: GST pull-down, Western blot with anti-AR NH27. A general note: In western blotting, separated proteins are transferred to a membrane and probed.

B1: GST alone (other)
chain: not shown
notes: Control
For B1, the binding result is recorded as “no binding”.

The record behind these values is US20060270591A1 (published 2006).
